In all, about 13,000 compounds were measured (“IFI”: median about 4, highest 2% from about 17 on). Some of the results follow.
Assay: GSK_TCMDC: Inhibition Frequency Index (IFI). The number of non-kinase HTS assays where a compound showed > 50 % inhibition, expressed as a percentage of the number of such assays in which the compound was tested (-0 is zero)
Format: functional
With Cc1cc2ccccc2c(CON2C(=N)N=C(N)NC2(C)C)c1C the IFI was 2.84%. Work on O=C(Cc1ccc(Cl)cc1)Nc1cc(Cl)ccc1Cn1cnc(N2CCNCC2)cc1=O yielded an IFI of 1.38%. Cc1cc(N[C@@H](CC(C)C)C(=O)NCc2cccs2)nc(NCCc2ccccc2)n1 gave an IFI of 6.82%. Cc1cccc2nc(-c3cccc(-c4cccc(C(=O)N5CCCCC5CN5CCC(O)C5)c4)c3)[nH]c12 (configuration not stated) showed an IFI of 5.31%. For CC(=O)Nc1nc(C(=O)Nc2cccc(-c3cccc(-c4nc5cccc(C)c5[nH]4)c3)c2)cs1, the IFI was 6.09%. COc1ccc2ncc(F)c(CCN3C4CCC3CC(NCc3cc5c(cn3)OCS5)C4)c2n1 (configuration not stated) gave an IFI of 3.73%. CC(=O)OCCN1C(=O)c2ccc3c4c(ccc(c24)C1=O)C(=O)N(CCOC(C)=O)C3=O showed an IFI of 1.41%. For COc1ccccc1C1CCN(C2CCC(NC(=O)/C=C/c3ccc(C(F)(F)F)cc3)CC2)CC1 (configuration not stated), the IFI was 6.67%. In the case of Cc1cc(NC(=O)NCCN2CCC(NC(=O)c3ccc(F)cc3)CC2)c2ccccc2n1, the IFI was 0.85%. Work on CC(=O)Oc1ccc(C(=O)Oc2ccccc2C#CC#N)cc1OC(C)=O yielded an IFI of 7.09%. For O=S(=O)(NC1CCCCN(Cc2ccccc2O)C1)c1ccc(C(F)(F)F)cc1 (configuration not stated), the IFI was 0.7%. CCN(CC)C(=O)C1CCN(C(C(=O)N2CCN(CC(=O)N3CCCC3)CC2)c2cc3ccccc3o2)CC1 (configuration not stated) gave an IFI of 0.75%. Molecule Oc1ccc(CCNc2nc(NCc3ccccc3-c3ccccc3)nc(N3CCCNCC3)n2)cc1 has an IFI of 18.2%. Cc1ccnc(NC(c2cccc(Cl)c2Cl)c2ccc3cccnc3c2O)c1 (configuration not stated) gave an IFI of 4.62%. CN(C)CCCNCc1ccc(-c2ccc(CNCCc3ccccc3)cc2)cc1 showed an IFI of 5.48%. With O=C1CCCN1CCCNCc1ccc(-c2ccc(-c3nc4cc(F)ccc4[nH]3)cc2)cc1 the IFI was 6.8%. For Cn1cc(C2CCN(CCCCCNC(=O)/C=C/c3ccc(Cl)c(Cl)c3)CC2)c2cc(O)ccc21, the IFI was 3.68%. In the case of Cc1ccc2[nH]c3c(c2c1)CC(C(=O)NCCC(C)C)NC31CCN(Cc2ccccc2)CC1 (configuration not stated), the IFI was 4.23%. For CN(C)CC(O)COc1ccc(Nc2ncc([N+](=O)[O-])c(Nc3ccccc3O)n2)cc1 (configuration not stated), the IFI was 6.21%. OC(CNc1ccnc(Nc2cccc(Cl)c2)n1)c1cccc(C(F)(F)F)c1 (configuration not stated) showed an IFI of 13.3%. For O=C(NC1CCCCC1)N(CCCn1ccnc1)Cc1csc(-c2ccc(CNCc3ccccc3)cc2)n1, the IFI was 4.05%. In the case of CCN(CC)CCOc1ccc(NC(=O)c2oc3ccccc3c2C=Cc2ccccc2)cc1, the IFI was 18.5%. Work on CN1CCN(C(C(=O)NCc2cc(Cl)cc(Cl)c2)c2ccccc2-c2ccsc2)CC1 (configuration not stated) yielded an IFI of 4.96%. Molecule COc1ccc(C2CCN(CCCCNC(=O)c3ccc(NC(=O)c4ccc(Cl)cc4)cc3)CC2)c(OC)c1 has an IFI of 6.14%. O=S(=O)(c1ccc(OCc2ccc(Cl)cc2)cc1)c1cc2c(c(-c3ccc(F)cc3)c1)CCN(CC1CC1)CC2 gave an IFI of 3.6%. In the case of COc1ccccc1/C=C/C(=O)NCCC1CCN(CCCCCNC(=O)/C=C/c2ccc(Cl)c(Cl)c2)CC1, the IFI was 6.99%. Cc1cc(=NN=Cc2ccc(Cl)cc2)c2cccc(C)c2[nH]1 showed an IFI of 1.45%. For O=C(N[C@@H](Cc1ccccc1)[C@H](O)CNC1CCCCC1)c1cc(C2CCCC2)cc(N2CCCC2=O)c1, the IFI was 3.05%. Work on CCN(CC)CCOc1ccc(C(O)(C#CC(O)(c2ccc(Br)cc2)c2ccc(OCCN(CC)CC)cc2)c2ccc(Br)cc2)cc1 (configuration not stated) yielded an IFI of 16.2%. For Cc1nc(-c2nc(N3CCC(C(N)=O)CC3)ncc2-c2ccsc2)sc1C, the IFI was 3.41%. With COc1ccc(CCCc2nc(N)nc(N)c2-c2ccc(Cl)cc2)cc1 the IFI was 2.99%. Work on COc1c(C2CCN(CCCCNC(=O)c3ccc(-c4ccc(C#N)cc4)cc3)CC2)ccc2c1C(C)(C)CCC2(C)C yielded an IFI of 11.4%. Work on NS(=O)(=O)c1cccc(-c2ccc3c(O)ncnc3c2)c1 yielded an IFI of 0%. Molecule O=S(=O)(c1ccccc1)n1ccc2cc(Nc3ncnc4cc(C#C[C@H]5CCCN5)sc34)ccc21 has an IFI of 8.57%. With CCN(CC)/C(=N\C(=N)NCCCCCCNC(=N)/N=C(\Nc1ccc(Cl)cc1)N(CC)CC)Nc1ccc(Cl)cc1 the IFI was 2.24%. With Cc1ccc(C(=O)Nc2ccc(Nc3ccnc4cc(-c5ccccn5)ccc34)cc2O)cc1 the IFI was 10.3%. Molecule COc1ccc(C(c2ccc(N(C)C)cc2)c2ccc(N(C)C)cc2)cc1 has an IFI of 18.2%. NC1=NC(Cc2ccccc2)N(c2ccc(Cl)cc2)C(N)=N1 (configuration not stated) gave an IFI of 0%. With CCc1c(CCNCCCCCCNCCc2ccccc2)ccc(OC)c1OC the IFI was 3.52%. For O=C(O)c1cccnc1Sc1ccc(Cl)cc1, the IFI was -0%. Molecule Cc1cccc(C(=O)Nc2ccnc(N(C)CCCN(C)Cc3cccc(C#N)c3)c2)c1 has an IFI of 0%. Work on Cc1cc(NC2CCN(CC3CCCCC3)C2)nc(Nc2ccc(Cl)cc2)n1 (configuration not stated) yielded an IFI of 7.69%. Cc1ccc(NC(C)C(=O)Nc2ccc(C#N)cc2)cc1S(=O)(=O)N1CCCCC1 (configuration not stated) gave an IFI of 1.37%. Work on c1ccc(CCNc2ccnc(Nc3ccc4cn[nH]c4c3)n2)cc1 yielded an IFI of 3.45%. OC(CNC1CCCCC1)Cn1c2ccc(I)cc2c2cc(I)ccc21 (configuration not stated) showed an IFI of 4.9%. For COc1ccc2[nH]c(-c3ccccc3)cc(=NN=Cc3ccncc3)c2c1, the IFI was 2.11%. Work on COc1cccc(CCc2nc3c(N4CCC(Cc5ccccc5)CC4)cccc3n2CC2CNCCO2)c1 (configuration not stated) yielded an IFI of 6.08%. Work on COc1ccc(NC(=O)Nc2ccc(-c3ccccc3)cc2)cc1Cn1cnc(N2CCCNCC2)cc1=O yielded an IFI of 4.83%. CCOc1cc(Cc2cnc(N)nc2N)cc(OCC)c1OCCCCC(=O)OC showed an IFI of -0%. Molecule CN1CCN(CCCN(Cc2cccc(-c3ccc(CNC4CCCC4)cc3)c2)C(=O)/C=C/c2ccccc2)CC1 has an IFI of 8.82%. Molecule Cc1ccc(CN2CCN(CC(O)COc3ccc4c(c3)CCC4)CC2)cc1 (configuration not stated) has an IFI of 2.99%. In the case of COc1ccc2c(c1)CCCC2C(C)NCC(O)c1cccc(C(F)(F)F)c1 (configuration not stated), the IFI was 1.43%. With Cc1nc2ccccc2n1C1CC2CCC(C1)N2CCC1(c2ccccc2)CCN(C(=O)Nc2ccc(C(F)(F)F)cc2)CC1 (configuration not stated) the IFI was 1.4%. In the case of Cc1cc(NS(=O)(=O)c2cccc(C(C)N3CCC(N4CCCC4)CC3)c2)ccc1C(C)C (configuration not stated), the IFI was 13.1%. With CN(C)CC(=O)Nc1ccc(-c2ccc3ccnc(N)c3c2)cc1 the IFI was 7.95%. Work on COc1ccc2ncc(F)c(CCN3C[C@H](CNCc4cc(C#N)c5c(c4)OCCO5)[C@H](O)C3)c2n1 yielded an IFI of 3.85%. Molecule NC(=O)c1cccc(Nc2nccc(Nc3ccc(Oc4ccc5ccccc5c4)cc3)n2)c1 has an IFI of 6.87%. Work on Cc1csc(-c2nonc2NC(=O)COc2ccccc2C(C)C)n1 yielded an IFI of -0%. With Cc1ccc(CN2CCC(C(=O)Nc3ccc(-c4cc5ccccc5[nH]4)cc3)CC2)o1 the IFI was -0%. With C=CCC1OC(=O)c2cc(OC)cc(OC)c21 (configuration not stated) the IFI was 33.6%. Work on CCCCCCCn1c(=N)n(CC(O)c2ccc(Cl)c(Cl)c2)c2ccccc21 (configuration not stated) yielded an IFI of 17.6%. In the case of N=C1SC(=Cc2cn[nH]c2-c2ccc(F)cc2)C(=O)N1c1nccs1, the IFI was 2.07%. In the case of O=C(Nc1cccc(CN2CCN(C(=O)c3ccccc3)CC2)c1)c1ccco1, the IFI was 1.52%. CC[C@H](C)CNC(=O)c1cccc(-c2ccc(CN3CCC(N4CCCC4)CC3)cc2)n1 showed an IFI of 9.09%. With Cc1ccc(CN(Cc2ccc(C(=O)N(C)C)cc2)Cc2ccc3c(c2)OCCO3)cc1C the IFI was 2.11%. In the case of O=C(Cc1c[nH]cn1)Nc1cccc(-c2cccc(-c3nc4cc(C(F)(F)F)ccc4[nH]3)c2)c1, the IFI was 10.8%. O=S(=O)(Nc1ccc(CCN2CCCCC2CCN2CCCC2)cc1)c1ccc(-c2ccccc2)cc1 (configuration not stated) showed an IFI of 14.1%. Molecule CN(C)Cc1c(O)ccc2oc(Cc3ccccc3)cc12 has an IFI of 5.49%. COc1ccc(N2C(N)=NC(N)=NC2(C)C)cc1 gave an IFI of 0.74%. Molecule N#Cc1cccc(C(=O)Nc2cccc(-c3ccc(CN4CCC(O)CC4)cc3)c2)c1 has an IFI of 0.98%. With O=C(Nc1ccc(-c2nc3ccccc3[nH]2)cc1)C1CCCN(CC2CC2)C1 (configuration not stated) the IFI was 2.38%. CC(=O)Nc1ccc(C(=O)NC2CCN(c3ccnc4cc(Cl)ccc34)CC2)cc1 showed an IFI of 0%. With COc1ccc(C(=O)NC(Nc2ccc([N+](=O)[O-])cc2)C(Cl)(Cl)Cl)cc1 (configuration not stated) the IFI was 13.4%. In the case of CCOC(=O)c1ccc2[nH]c(-c3ccc(C(=O)NCc4ccc(C(C)(C)C)cc4)cc3)nc2c1, the IFI was 1.45%. Molecule Cc1ccc(C(=O)Nc2cccc(-c3ccc(N4CCN(C)CC4)nn3)c2)cc1[N+](=O)[O-] has an IFI of 1.89%. With O=C(NCCCCCN1CCC(c2c[nH]c3ccccc23)CC1)c1ccc(-c2ccccc2)nc1 the IFI was 4.44%. With CC(C)(C)c1nn(-c2ccccc2)c2[nH]c(=O)c(CNC3CCCC3)cc12 the IFI was 0.78%. In the case of O=C(Nc1ccc(Cn2ncc(N3CCCNCC3)c(Cl)c2=O)cc1)Nc1ccc(C(F)(F)F)cc1, the IFI was 11.8%. For COc1cc(Cc2cnc(N)nc2N)cc(OC)c1OCCCCC(=O)O, the IFI was 1.5%. Molecule COc1cccc(Nc2nc(Nc3cccc(C#N)c3)cc(-c3ccncc3)n2)c1 has an IFI of 0%. For O=C(Nc1ccc(N2CCCCC2)c(Cl)c1)c1ccco1, the IFI was 0.87%. For CC(C)C(=O)NC(c1ccc(N(C)C)cc1)c1cc(Cl)c2cccnc2c1O (configuration not stated), the IFI was 5.38%. CC1(C)NC(=N)NC(=N)N1OCC=Cc1ccccc1 showed an IFI of 3.57%. In the case of O=C(NCCN1CCCCC1)c1ccc(CNC(=O)c2ccc(O)c(-c3ccc(Cl)c(Cl)c3)c2)cc1, the IFI was 2.96%. For COc1ccc(-c2nc(NC(=O)CSc3ccccc3)sc2C)cc1, the IFI was 3.47%. O=C(CCCC(=O)Nc1ccc(C2=NCCN2)cc1)Nc1ccc(C2=NCCN2)cc1 gave an IFI of 0%. CCN(CC)CCN(Cc1ccc(-c2ccc(C(F)(F)F)cc2)cc1)C(=O)Cn1c(CCc2ccc(F)c(F)c2F)nc(=O)c2ccc(F)cc21 gave an IFI of 3.01%. CN(C)CC(O)C(O)(c1ccccc1)c1ccc(F)cc1 (configuration not stated) gave an IFI of -0%. For O=S(=O)(NCCN1CCCC1)c1ccc(-c2cccc(CNCc3ccc(F)cc3)c2)s1, the IFI was 9.65%. For Cc1cc(N[C@@H](Cc2ccccc2)C(=O)NCc2cccc(F)c2)nc(NCCOc2ccccc2)n1, the IFI was 6.98%. In the case of CN1CCN(CCCN(C(=O)Nc2cc(C(F)(F)F)cc(C(F)(F)F)c2)c2ccccc2Cc2ccccc2)CC1, the IFI was 10.8%. CCCCCCN1CCN(Cc2cccc(NC(=O)c3cccc(OCC)c3)c2)CC1 gave an IFI of 3.52%.
